In paper PMC4336329 (PLoS ONE, 2015):
Screen size: about 310,000 compounds; about 14,000 (4.5%) showed an effect of 50% or more. The effect is printed as a negative number. Some of the results follow.

molecular target: human ether-à-go-go-related gene (hERG) potassium channel (human, UniProt Q12809); assay: primary screen, population patch clamp on CHO cells stably expressing hERG
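Also: peak tail current of the secondary pulse compared with the same well before compound.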

Sequence of human ether-à-go-go-related gene (hERG) potassium channel (Q12809 whole entry, looked up): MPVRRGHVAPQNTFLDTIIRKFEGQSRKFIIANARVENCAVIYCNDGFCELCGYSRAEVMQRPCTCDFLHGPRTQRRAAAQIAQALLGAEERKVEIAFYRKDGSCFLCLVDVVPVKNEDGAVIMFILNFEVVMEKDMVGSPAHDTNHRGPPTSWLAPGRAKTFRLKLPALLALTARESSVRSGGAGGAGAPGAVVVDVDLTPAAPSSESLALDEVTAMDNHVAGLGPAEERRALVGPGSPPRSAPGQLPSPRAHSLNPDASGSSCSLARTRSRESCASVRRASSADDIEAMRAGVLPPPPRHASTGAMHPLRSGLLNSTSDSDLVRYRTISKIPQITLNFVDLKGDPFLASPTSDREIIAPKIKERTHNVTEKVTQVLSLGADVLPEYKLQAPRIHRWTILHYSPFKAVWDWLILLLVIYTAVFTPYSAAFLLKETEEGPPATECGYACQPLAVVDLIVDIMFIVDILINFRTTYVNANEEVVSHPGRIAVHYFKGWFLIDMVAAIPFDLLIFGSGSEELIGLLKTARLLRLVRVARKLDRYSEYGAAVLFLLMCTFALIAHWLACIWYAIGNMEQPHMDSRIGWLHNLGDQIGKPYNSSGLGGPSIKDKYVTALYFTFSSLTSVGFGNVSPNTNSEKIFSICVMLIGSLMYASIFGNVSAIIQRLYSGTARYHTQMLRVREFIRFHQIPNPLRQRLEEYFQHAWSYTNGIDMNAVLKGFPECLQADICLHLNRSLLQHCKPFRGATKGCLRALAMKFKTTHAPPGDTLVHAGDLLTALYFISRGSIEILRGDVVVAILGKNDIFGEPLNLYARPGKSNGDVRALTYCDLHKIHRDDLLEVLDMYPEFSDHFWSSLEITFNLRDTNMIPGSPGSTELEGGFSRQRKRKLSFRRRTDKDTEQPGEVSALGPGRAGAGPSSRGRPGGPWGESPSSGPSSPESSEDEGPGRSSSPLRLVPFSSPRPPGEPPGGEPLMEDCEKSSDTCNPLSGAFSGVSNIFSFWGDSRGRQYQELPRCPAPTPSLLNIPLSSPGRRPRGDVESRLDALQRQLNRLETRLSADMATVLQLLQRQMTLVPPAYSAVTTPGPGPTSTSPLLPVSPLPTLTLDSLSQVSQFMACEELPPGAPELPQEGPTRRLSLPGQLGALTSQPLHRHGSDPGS

Row | Structure (SMILES) | hERG current change (%, negative = inhibition) at 10uM
1 | COc1ccc2nc(C)cc(Nc3ccc(N4CCN(C)CC4)cc3)c2c1 | -1.75%
2 | O=[N+]([O-])c1cccc(/C=C/c2nc(C=Nc3ccc4ccccc4c3)c(O)o2)c1 | -8.7%
3 | N#CCN1C(=O)C2CCCN2c2ccc(S(=O)(=O)N3CCOCC3)cc21 (centres unmarked) | 19.6%
4 | C=CCNC(=O)NC(=O)COn1nnc2ccc(S(=O)(=O)N(C)C)cc21 | 5.69%
5 | COc1ccc(C(=O)CSc2nc3ccccc3n2CC(=O)c2ccccc2)cc1 | -9.94%
6 | CC(C)Cc1nc(SCc2cccnc2)c2c(=O)n(C)c(=O)n(C)c2n1 | -8.32%
7 | CC(=O)N(C1=C(N2CCOCC2)C(=O)c2ccccc2C1=O)c1ccc(C(=O)O)cc1 | 44.2%
8 | CCN(CC)c1ccc(C(=O)OCc2c(C)noc2C)cc1 | -3.32%
9 | CCOC(=O)c1[nH]c(Cc2[nH]c(C(=O)OCC)c(C)c2CCC(=O)OC)c(CCC(=O)OC)c1C | 3.71%
10 | Cc1ccccc1NC(=O)CNC(=O)Cc1cccc2ccccc12 | 1.16%
11 | COc1cc(OC)cc(-c2n[nH]c(=S)n2-c2cc(OC)ccc2OC)c1 | -4.14%
12 | CCOc1ccc(C(C(=O)NC2CCCCC2)N(C(=O)c2csnn2)C2CC2)cc1 (centres unmarked) | 10.3%
13 | Cc1ccc2[nH]cc(CCNC(=O)c3cccs3)c2c1 | 0.562%
14 | Cc1ccc(-n2nc3c(=O)n(CCCC(=O)NC4CCC(C)CC4)nc(C)c3c2C)cc1 (centres unmarked) | -8.63%
15 | CC(C)(C)NS(=O)(=O)c1ccc(/C=C/C(=O)O)cc1 | 18.2%
16 | COc1ccc(Oc2nc(Oc3ccc(OC)cc3)nc(Oc3ccc(OC)cc3)n2)cc1 | -1.96%
17 | CCOc1cc(C(=O)Nc2ccc(S(=O)(=O)N3CCOCC3)cc2)cc(OCC)c1OCC | 10.9%
18 | Cc1cc2c(cc1C)NC(=O)CC(C(F)(F)C(F)(F)C(F)(F)F)=N2 | 9.6%
19 | CCOC(=O)C1(Cc2cccc(OC)c2)CCCN(C(=O)CNC(C)=O)C1 (centres unmarked) | 14.9%

Row | Structure (SMILES) | hERG current change (%, negative = inhibition) at 10uM
20 | COc1cccc(CN2CCCC(C(=O)N3CCCCC3)C2)c1.O=C(O)C(=O)O (centres unmarked) | 5.13%
21 | O=C1CSC(c2ccccc2F)N1 (centres unmarked) | 9.46%
22 | O=C(Nc1nccs1)c1ccc(N2CCOCC2)c([N+](=O)[O-])c1 | 2.14%
23 | O=C(NCC1CCCO1)C(=O)NCC(c1ccco1)N1CCN(c2ccc(F)cc2)CC1 (centres unmarked) | -12.7%
24 | O=C(Nc1nnc(C2CC2)s1)c1ccc(Cl)nc1 | 0.538%
25 | O=C1CN(C(=O)/C=C/c2cccc(Cl)c2)c2ccccc2N1 | -21.4%
26 | COc1ccc(-c2nc3cc([N+](=O)[O-])ccc3o2)cc1 | 9.39%
27 | COc1ccc2c(c1)cc(C(O)c1ccccn1)n2S(=O)(=O)c1ccccc1 (centres unmarked) | 12%
28 | CC(C)CC(=O)Nc1nc(=S)ss1 | 16.7%
29 | CCCCCC(=O)N/N=C/c1ccc([N+](=O)[O-])o1 | -26.2%
30 | CC(C)c1ccc(NC2CCCN(C(=O)C3=NN(C)C(=O)CC3)C2)cc1 (centres unmarked) | 8.34%
31 | CC(=O)Nc1ccc(NC(=O)C2C3C=CC(C3)C2C(=O)O)cc1 (centres unmarked) | 9.11%
32 | COc1cccc(CCC(=O)O)c1OC | 15.2%
33 | COc1ccc(CCNc2nc(C)cc(C)c2C#N)cc1OC | 12.1%
34 | O=C(O)C1CCCN1S(=O)(=O)c1ccccc1 (centres unmarked) | -6.27%
35 | Cn1c(SCc2nn[nH]n2)nc2c1c(=O)n(Cc1ccccc1Cl)c(=O)n2C | -2.46%
36 | CCOC(=O)C1(Cc2cccc(OC)c2)CCCN(C(=O)CCSC)C1 (centres unmarked) | 9.52%
37 | Cc1cc(NC(=O)CSc2nnc(Cc3ccccc3)o2)no1 | 14.4%
38 | COc1cccc(CN(C(=O)/C=C/c2ccco2)C2CCS(=O)(=O)C2)c1 (centres unmarked) | -13.1%

Row | Structure (SMILES) | hERG current change (%, negative = inhibition) at 10uM
39 | COC(=O)c1ccc(COc2ccc3c(C)c(C)c(=O)oc3c2)o1 | -2.99%
40 | COc1ccc(N(C(C)C(=O)NN=C2CCCCCCC2)S(C)(=O)=O)cc1 (centres unmarked) | 4.3%
41 | CC(C)CN1CCN(Cc2ccc(CN3CCCCC3)s2)CC1CCO (centres unmarked) | 16.3%
42 | C[C@@H](NCCc1ccc(O)cc1)[C@@H](O)c1ccc(O)cc1.Cl | -11.5%
43 | Cc1nc(C)n(CCNS(=O)(=O)c2ccccc2)n1 | 18.8%
44 | COc1cc(NC(=O)COc2cc(O)c3c(c2)OC(C)(C)CC3=O)cc(OC)c1 | -12.5%
45 | Cc1cc(C)cc(NC(=S)NCCCN2CCOCC2)c1 | -18.5%
46 | Cc1ccc(NC(=O)c2[nH]cnc2C(=O)NN)cc1 | 18.9%
47 | CCCCNc1nnc(SCC(=O)c2c(N)n(CCC)c(=O)[nH]c2=O)s1 | -19.3%
48 | Cc1ccc(S(=O)(=O)NCC(=O)N(CC(=O)NCC2CCCO2)Cc2ccc(Cl)cc2)cc1 (centres unmarked) | -11%
49 | CN(C)CCN1C(=O)C2C(C(=O)Nc3cc(Cl)cc(Cl)c3)C3C=CC2(O3)C1C(=O)NC1CCCCC1 (centres unmarked) | -29.7%
50 | Cc1ccc(-c2nc(CN(CC3CCC3)CC3CCCO3)c(C)o2)s1 (centres unmarked) | -13%
51 | CCn1c(NC(=O)c2ccco2)c(-c2ccccc2Cl)c(=O)c2ccccc21 | 24.9%
52 | CC(C)(C)C(C(=O)Oc1ccccc1)c1ccccc1 (centres unmarked) | -1.01%
53 | CN1CCN(C(=O)CCCN2C(=O)/C(=C/c3ccc(Cl)cc3)SC2=S)CC1 | 1.74%
54 | COc1ccccc1-c1c(C(F)(F)F)oc2cc(OCC(=O)Nc3ccccc3C(F)(F)F)ccc2c1=O | -3.07%
55 | Cc1ccc(-c2noc(CN(C(=O)c3cccc(Br)c3)C(C)C)n2)cc1 | -13%
56 | COc1ccc(N2CCN(Cc3nc4ccccc4c(=O)[nH]3)CC2)cc1 | -6.67%
